Data taken from PMC4336329 (PLoS ONE, 2015).
Among all 310,000 compounds or so, about 14,000 (4.5%) showed an effect of 50% or more. The effect is printed as a negative number. This is one part of the list.

molecular target: human ether-à-go-go-related gene (hERG) potassium channel (human, UniProt Q12809); test: primary screen, population patch clamp on CHO cells stably expressing hERG
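Also: peak tail current of the secondary pulse compared with the same well before compound.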

Chain of human ether-à-go-go-related gene (hERG) potassium channel (Q12809 whole entry, looked up): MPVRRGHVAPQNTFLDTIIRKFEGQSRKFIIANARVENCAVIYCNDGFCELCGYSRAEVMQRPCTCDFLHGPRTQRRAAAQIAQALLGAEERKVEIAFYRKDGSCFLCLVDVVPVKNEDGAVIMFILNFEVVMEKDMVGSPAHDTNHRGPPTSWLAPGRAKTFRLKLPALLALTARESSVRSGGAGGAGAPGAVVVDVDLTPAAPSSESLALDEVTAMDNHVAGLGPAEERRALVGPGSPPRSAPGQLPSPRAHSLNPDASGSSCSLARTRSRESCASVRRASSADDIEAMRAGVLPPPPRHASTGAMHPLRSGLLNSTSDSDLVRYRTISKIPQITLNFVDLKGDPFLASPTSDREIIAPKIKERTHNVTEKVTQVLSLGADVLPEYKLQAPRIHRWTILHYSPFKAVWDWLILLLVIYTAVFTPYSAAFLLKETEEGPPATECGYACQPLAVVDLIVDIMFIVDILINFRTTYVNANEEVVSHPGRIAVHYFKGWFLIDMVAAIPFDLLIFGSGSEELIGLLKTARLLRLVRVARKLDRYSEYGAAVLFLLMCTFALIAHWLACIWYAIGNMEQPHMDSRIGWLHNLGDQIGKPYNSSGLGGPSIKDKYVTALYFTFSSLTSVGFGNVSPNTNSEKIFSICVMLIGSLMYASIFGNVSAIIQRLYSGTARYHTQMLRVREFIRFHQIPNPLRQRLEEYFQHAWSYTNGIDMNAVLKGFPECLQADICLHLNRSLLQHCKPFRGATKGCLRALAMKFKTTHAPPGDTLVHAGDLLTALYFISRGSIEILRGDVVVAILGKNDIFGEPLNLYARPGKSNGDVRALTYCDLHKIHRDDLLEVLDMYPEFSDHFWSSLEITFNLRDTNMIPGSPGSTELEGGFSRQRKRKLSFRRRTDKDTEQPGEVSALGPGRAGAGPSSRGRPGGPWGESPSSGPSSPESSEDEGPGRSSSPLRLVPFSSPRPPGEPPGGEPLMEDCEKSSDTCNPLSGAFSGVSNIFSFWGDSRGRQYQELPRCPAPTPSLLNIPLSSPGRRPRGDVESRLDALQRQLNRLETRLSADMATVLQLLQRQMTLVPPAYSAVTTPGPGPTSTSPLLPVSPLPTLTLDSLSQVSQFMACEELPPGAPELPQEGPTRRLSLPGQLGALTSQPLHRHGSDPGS

SMILES | hERG current change (%, negative = inhibition) at 10uM
CCOC(=O)N=S(=O)(Oc1ccc([N+](=O)[O-])cc1)c1ccccc1 (centres unmarked) | -32.6%
CCC(=O)c1c[nH]c(C(=O)NCCCN2CCOCC2)c1 | 5.59%
COc1ccc(S(=O)(=O)NCCC(=O)N2CCCC2)cc1N(C)S(C)(=O)=O | 15.3%
CCCCCCCC(=O)N/N=C/c1ccco1 | -12.8%
COc1ccc(N(C)S(=O)(=O)c2cccc(C(=O)N3CCN(S(=O)(=O)c4ccc(C)cc4)CC3)c2)cc1 | -8%
CN(C)S(=O)(=O)c1cc(C(=O)N2CCC(C(=O)O)(c3ccccc3)CC2)ccc1Cl | 24.7%
Oc1c(/C=N/c2ccccn2)sc2ccccc12 | -6.5%
COc1ccc(C(=O)NC(C)C2CC3CCC2C3)c(OC)c1 (centres unmarked) | -41.6%
COc1ccc(Br)cc1CN1CCN(C(=O)Cc2ccccc2)CC1.Cl | -7.37%
C=CCn1c(Cc2ccc(OC(C)C)c(Cl)c2)nnc1SCC(N)=O | -3.01%
CC(=O)NCc1cccc(CNC(C)=O)n1 | 1.53%
S=c1[nH]nc(-c2ccn[nH]2)n1-c1ccccc1Cl | 23%
O=C(C1CCC(C(=O)N2CCc3ccccc32)CC1)N1CCc2ccccc21 (centres unmarked) | -0.582%
CC(NC(=O)[C@@H](C)NC(=O)[C@@H]1Cc2ccccc2CN1C(=O)OC(C)(C)C)c1ccccc1 (some centres unmarked) | 9.87%
O=C(C1CCC(=O)N(C2CC2)C1)N1CCC(Oc2cccc(F)c2)CC1 (centres unmarked) | -13%
CCOC(=O)N1CCN(C(=O)C(=O)N/N=C/c2ccc(OC)cc2OC)CC1 | 3.05%
O=C(O)c1ccc(Br)c(S(=O)(=O)N2CCCC2)c1 | 9.91%
CN(C(=O)COc1ccccc1)c1nc(-c2ccc(F)cc2)cs1 | 15.1%
O=C(NCc1ccccc1Cl)C1CC(=O)N(Cc2ccccc2)C1 (centres unmarked) | 12.1%
O=C(c1ccccc1)N1CCCCC(Cl)C1=O (centres unmarked) | 9.67%
CCC(C(=O)Nc1ccncc1)c1ccccc1 (centres unmarked) | 0.0329%
Cc1cccc(CSc2nnc(NC(=O)CSc3nnc(C)s3)s2)c1 | 13.7%

SMILES | hERG current change (%, negative = inhibition) at 10uM
O=S(=O)(c1ccc(F)cc1)N1CN(Cc2ccco2)c2nc3ccccc3nc21 | -11.4%
CCc1cc(C(=O)OC)c(NC(=O)CC2NCCNC2=O)s1 (centres unmarked) | 7.37%
NS(=O)(=O)c1ccc(Cl)c(C(=O)Nc2ccccc2[N+](=O)[O-])c1 | 3.17%
O=C(Nc1cccnc1)c1cc(-c2cccnc2)nc2ccc(Br)cc12 | -28.6%
CSCCC(N=C1NS(=O)(=O)c2ccccc21)C(=O)NCCc1ccccc1 (centres unmarked) | 13.2%
CCC(C)[C@H](NC(=O)N1CCn2c1nc1ccccc12)C(=O)NCCc1ccccc1 (some centres unmarked) | -2.42%
CCOC(=O)c1sc(N/N=C/c2cc(Br)c(O)c(OC)c2)nc1C | 4.89%
CNC(=O)c1ccc(-c2ccc(OC)cc2)s1 | 17.1%
CCc1nn(-c2ccccc2)c(=S)c2ccccc12 | -0.667%
Cc1nn(-c2ccccc2)c(Cl)c1/C=C1\SC(=S)N(CCCCCC(=O)O)C1=O | -23.5%
FC(F)(F)c1ccc2c3n(nc2c1)CCN=C3c1ccc(Cl)cc1 | -7.82%
CC1CC(C)CN(c2ccc(C(=O)OCC(=O)NC3CCCc4ccccc43)cc2[N+](=O)[O-])C1 (centres unmarked) | 22.3%
COc1ccc(/C=C/C(=O)OCC(=O)c2c(N)n(C)c(=O)n(C)c2=O)cc1 | 5.38%
NS(=O)(=O)c1ccc(NC(=O)Nc2cccc(Cl)c2)cc1 | 17.5%
CC1Oc2ccccc2N(CC(=O)NCC2CCCO2)C1=O (centres unmarked) | -15.3%
O=C(Nc1cccc(OC(=O)N2CCCCC2)c1)N1CCOCC1 | 18.9%
CCn1c(SC)nnc1C1CCN(CC(=O)Nc2ccccc2N2CCOCC2)CC1 | -31%
O=C(NCc1ccccc1)C(c1ccccn1)N(C(=O)c1csnn1)c1ccccc1F (centres unmarked) | -5.45%
COc1ccc([N+](=O)[O-])cc1NC(=O)CCc1ccccc1 | 4.14%
COC(=O)CCC(=O)NC(=S)Nc1ccc(S(=O)(=O)N2CCCC2)cc1 | 18.7%
CCOc1ccc(C(=O)CCC(=O)NCC(=O)Nc2c(C)cccc2C)cc1 | -7.13%
CCOc1ccc(C2C(C(=O)c3ccco3)=C(O)C(=O)N2CCCn2ccnc2)cc1OC (centres unmarked) | -5.03%
